{"source": "PubChem BioAssay AID360", "about": "(National Center for Advancing Translational Sciences (NCATS), 2006)", "note": "In all, about 48,000 compounds went through this assay and about 550 (1.1%) were called active. Another 4% or so got no clear call; they are omitted. Cut-off read from the data, not from the text of the source: active = potency below about 15 µM; inconclusive = mostly about 16 µM to 33 µM; inactive = weaker than that. The list shows a part of the results. Potency is the fitted concentration of half-maximal effect."}
{"target": "Lysosomal acid glucosylceramidase (Homo sapiens) (UniProt P04062)", "sequence (P04062 whole entry, looked up)": "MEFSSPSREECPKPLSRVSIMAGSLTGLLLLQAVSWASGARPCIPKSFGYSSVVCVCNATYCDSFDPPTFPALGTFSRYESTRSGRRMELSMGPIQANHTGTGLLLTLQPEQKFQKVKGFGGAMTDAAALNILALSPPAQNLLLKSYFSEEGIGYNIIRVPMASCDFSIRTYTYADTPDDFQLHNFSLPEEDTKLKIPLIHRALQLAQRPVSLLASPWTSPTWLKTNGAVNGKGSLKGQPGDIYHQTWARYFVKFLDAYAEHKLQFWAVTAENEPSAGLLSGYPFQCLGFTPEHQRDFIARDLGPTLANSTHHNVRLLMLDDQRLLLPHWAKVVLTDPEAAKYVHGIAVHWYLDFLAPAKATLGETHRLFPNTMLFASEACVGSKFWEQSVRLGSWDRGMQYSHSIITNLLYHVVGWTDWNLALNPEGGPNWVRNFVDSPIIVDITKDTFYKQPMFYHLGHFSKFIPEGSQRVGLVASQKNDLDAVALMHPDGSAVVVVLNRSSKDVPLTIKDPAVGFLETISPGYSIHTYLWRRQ", "assay": "Glucocerebrosidase;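 note: the screen sought inhibitors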", "conditions": "purified enzyme, resorufin glucoside fluorescence (screen aimed at inhibitors), 20 min", "how_it_was_run": "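Wild-type enzyme at 0.2 nM final in 50mM citric acid/KH2PO4, 10mM sodium taurocholate, 0.01% tween-20, pH 5.9, with resorufin beta-D-glucopyranoside at 30 uM final. Compounds titrated, 20 min at RT, red fluorescence read; AC50 from titration.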"}
{"smiles": "CC(=O)NC1CC2CCCC(C1)N2", "note": "(stereo not given)", "Potency": "inactive: > 76.9 µM"}
{"smiles": "CC12CN3C(O)C(C)(C1)CC(C)(C2)C3O", "note": "(stereo not given)", "Potency": "inactive: > 76.9 µM"}
{"smiles": "C=CCn1c(O)c(C(C)=NCc2cc(OC)cc(OC)c2)c(=O)[nH]c1=O", "Potency": "inactive: > 76.9 µM"}
{"smiles": "CC1CCC(NCCc2ccc3c(c2)OCO3)CC1", "note": "(stereo not given)", "Potency": "inactive: > 76.9 µM"}
{"smiles": "O=C(Cn1cc(C(=O)c2ccccc2F)c2ccccc21)NCc1ccco1", "Potency": "inactive: > 76.9 µM"}
{"smiles": "COc1ccc(CCn2c(O)c(C=NCc3ccc4c(c3)OCO4)c(=O)[nH]c2=O)cc1OC", "Potency": "inactive: > 76.9 µM"}
{"smiles": "COc1ccc(CC2C(=O)NC(=O)NC2=O)c(OC)c1", "Potency": "inactive: > 76.9 µM"}
{"smiles": "CCN1C(=O)c2ccccc2Sc2ccc(C(=O)N3CCC4(CC3)OCCO4)cc21", "Potency": "inactive: > 76.9 µM"}
{"smiles": "CCOC(=O)c1c(C)n(CCOC)c2ccc(O)cc12", "Potency": "inactive: > 76.9 µM"}
{"smiles": "O=c1cccc2n1CC1CC2CN(c2ncnc3c2cnn3-c2ccccc2)C1", "note": "(stereo not given)", "Potency": "inactive: > 76.9 µM"}
{"smiles": "CCCCn1c(=O)c(C(=O)Nc2cnccn2)c(O)c2ccccc21", "Potency": "inactive: > 76.9 µM"}
{"smiles": "COc1ccc(CCn2c(O)c(C=NCc3cccnc3)c(=O)[nH]c2=O)cc1OC", "Potency": "inactive: > 76.9 µM"}
{"smiles": "Cc1noc(C)c1C(=O)N1CCC2(CC1)OCCO2", "Potency": "inactive: > 76.9 µM"}
{"smiles": "CN(C)CCN=Cc1c(O)n(-c2cccc(C(F)(F)F)c2)c(=O)[nH]c1=O", "Potency": "inactive: > 76.9 µM"}
{"smiles": "Nc1ccnn1C1CCNCC1", "Potency": "inactive: > 76.9 µM"}
{"smiles": "O=c1[nH]c(=O)n(Cc2ccccc2)c(O)c1C=NCCCn1ccnc1", "Potency": "inactive: > 76.9 µM"}
{"smiles": "Nc1ccc(N2CCN(Cc3ccccc3Cl)CC2)c(Cl)c1", "Potency": "inactive"}
{"smiles": "CCC(=O)N1c2ccc(S(=O)(=O)CCC(=O)N3CCC4(CC3)OCCO4)cc2CC1C", "note": "(stereo not given)", "Potency": "inactive: > 76.9 µM"}
{"smiles": "N#Cc1ccccc1Cn1cc(C(=O)c2cccs2)c2ccccc21", "Potency": "inactive: > 76.9 µM"}
{"smiles": "Cc1nc2cc(-c3cccc(F)c3)nn2c(C)c1CCC(=O)N1CCC2(CC1)OCCO2", "Potency": "inactive: > 76.9 µM"}
{"smiles": "CCOC(=O)C1=C(N)Oc2cc(C)oc(=O)c2C12C(=O)N1c3c(cccc32)C(C)=CC1(C)C", "note": "(stereo not given)", "Potency": "inactive: > 76.9 µM"}
{"smiles": "CP(=O)(O)CCCN", "Potency": "inactive: > 76.9 µM"}
{"smiles": "CCCCn1c(O)c(C(CC)=NCCCN(C)C)c(=O)[nH]c1=O", "Potency": "inactive: > 76.9 µM"}
{"smiles": "O=C(CN1C(=O)CCSc2ccccc21)N1CCC2(CC1)OCCO2", "Potency": "inactive: > 76.9 µM"}
{"smiles": "O=C(Cn1c2c(c(-c3ccccc3Cl)cc1=O)CCC2)N1CCC2(CC1)OCCO2", "Potency": "inactive: > 76.9 µM"}
{"smiles": "Cc1cc(OCc2nn[nH]n2)c2c3c(c(=O)oc2c1)CCCC3", "Potency": "inactive: > 76.9 µM"}
{"smiles": "Cn1c(=O)cc(OCC(=O)N2CCN(Cc3ccc4c(c3)OCO4)CC2)c2ccccc21", "Potency": "inactive: > 76.9 µM"}
{"smiles": "CC(C)C12CN3CCN(CC(C3)C1O)C2", "note": "(stereo not given)", "Potency": "inactive: > 76.9 µM"}
{"smiles": "c1ccc(C2=NP(N3CCOCC3)(N3CCOCC3)=NC(N3CCOCC3)=N2)cc1", "Potency": "inactive: > 76.9 µM"}
{"smiles": "O=C(Cn1ncc2ccccc21)N1CCC2(CC1)OCCO2", "Potency": "inactive: > 76.9 µM"}
{"smiles": "CC(c1ccccc1F)n1cc(C(=O)Nc2ccc3nc[nH]c3c2)nn1", "note": "(stereo not given)", "Potency": "inactive"}
{"smiles": "Nc1ccccc1C(=O)OCCOc1ccccc1", "Potency": "inactive: > 76.9 µM"}
{"smiles": "CC12CC(c3ccccc3O1)C(C(=O)OCc1ccccc1)C(=O)N2", "note": "(stereo not given)", "Potency": "inactive: > 76.9 µM"}
{"smiles": "C=CCn1c(O)c(C(CC)=Nc2cc(OC)ccc2OC)c(=O)[nH]c1=O", "Potency": "inactive: > 76.9 µM"}
{"smiles": "CNCC(O)c1cccc(OC(=O)c2ccccc2C)c1", "note": "(stereo not given)", "Potency": "inactive: > 76.9 µM"}
{"smiles": "COc1ccc(C2C(C(=O)N3CCC4(CC3)OCCO4)c3cc(OC)c(OC)cc3C(=O)N2C)cc1", "note": "(stereo not given)", "Potency": "inactive: > 76.9 µM"}
{"smiles": "CC(=Nc1ccc2c(c1)CCC2)c1c(O)n(C2CCCCC2)c(=O)[nH]c1=O", "Potency": "inactive: > 76.9 µM"}
{"smiles": "C=CCn1c(O)c(C(C)=Nc2ccc(N(CC)CC)cc2)c(=O)[nH]c1=O", "Potency": "inactive: > 76.9 µM"}
{"smiles": "COc1cc(OC)cc(-n2nc(C(=O)N3CCC4(CC3)OCCO4)c3ccccc3c2=O)c1", "Potency": "inactive: > 76.9 µM"}
{"smiles": "Cc1ccc(N2C(=O)NC(=O)C3(Cc4ccccc4N4CCN(c5ccccc5)CC43)C2=O)cc1", "note": "(stereo not given)", "Potency": "inactive: > 76.9 µM"}
{"smiles": "CN1C(=O)N(C)C(=O)C2(Cc3c(ccc4ccccc34)N(C)C2)C1=O", "Potency": "inactive: > 76.9 µM"}
{"smiles": "CCCCn1c(O)c(C(C)=NCCc2ccccc2)c(=O)[nH]c1=O", "Potency": "inactive: > 76.9 µM"}
{"smiles": "CCC(=NCCN1CCOCC1)c1c(O)n(-c2ccccc2C)c(=O)[nH]c1=O", "Potency": "inactive: > 76.9 µM"}
{"smiles": "Cc1cccn2c(=O)c3cc(C(=O)N4CCC5(CC4)OCCO5)n(C)c3nc12", "Potency": "inactive: > 76.9 µM"}
{"smiles": "COC(=O)CC1=C(C(=O)OC)C2(C(=O)N(C)c3ccccc32)C(C#N)=C(N)O1", "note": "(stereo not given)", "Potency": "inactive: > 76.9 µM"}
